Test results taken from the supplement of paper PMC4967469.
The IC50 comes from the fitted curve, where viability falls to half of the control; fits outside the tested doses are given as limits. The AUC spans the tested range (256-fold, ending at the top dose) of the same fit; the more sensitive the line, the further below 1. For some assays here: The top dose, if marked as inferred, comes from the curve model; the source does not state it.

Key:
Assay in all cases: Viability of human cancer cell lines after 72 h of drug (GDSC screen)
Vorinostat = compound: O=C(CCCCCCC(=O)Nc1ccccc1)NO [Vorinostat]; conditions: top dose 10 µM
Protocol: (§1)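 Human cancer cell lines in 384-well plates, medium with 10% serum, drug for 72 h over a 256-fold dose range (nine 2-fold or five 4-fold steps up to the top dose). Adherent lines were fixed and stained with the nucleic acid dye Syto60, suspension lines read with resazurin; signal relative to control wells, capped at 0 and 100%. One two-parameter sigmoid per drug and line, fitted in a mixed model over all curves with the slope shared within a line.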

Axitinib = compound: CNC(=O)c1ccccc1Sc1ccc2c(/C=C/c3ccccn3)n[nH]c2c1 [Axitinib]; conditions: top dose 2 µM
Protocol: as §1

Methotrexate = compound: CN(Cc1cnc2nc(N)nc(N)c2n1)c1ccc(C(=O)N[C@@H](CCC(=O)O)C(=O)O)cc1 [Methotrexate]; conditions: top dose 0.2 µM
Protocol: as §1

SN-38 = compound: CCc1c2c(nc3ccc(O)cc13)-c1cc3c(c(=O)n1C2)COC(=O)[C@]3(O)CC [SN-38]; conditions: top dose 0.05 µM; top dose inferred
Protocol: as §1

Dabrafenib = compound: CC(C)(C)c1nc(-c2cccc(NS(=O)(=O)c3c(F)cccc3F)c2F)c(-c2ccnc(N)n2)s1 [Dabrafenib]; conditions: top dose 10 µM
Protocol: as §1

| Cell Line | AUC (Vorinostat) | IC50 (Vorinostat) [nM] | AUC (Axitinib) | IC50 (Axitinib) [nM] | AUC (Methotrexate) | IC50 (Methotrexate) [nM] | AUC (SN-38) | IC50 (SN-38) [nM] | AUC (Dabrafenib) | IC50 (Dabrafenib) [nM] |
| --- | --- | --- | --- | --- | --- | --- | --- | --- | --- | --- |
| PANC-04-03 (pancreas, adherent) | 0.845 | > 10000 | 0.977 | > 2000 | 0.94 | > 200 | 0.871 | > 50 | – | – |
| C3A (liver, adherent) | 0.866 | 9580 | 0.988 | > 2000 | 0.969 | > 200 | 0.532 | 3.85 | – | – |
| WM793B (melanoma, adherent) | 0.877 | > 10000 | 0.978 | > 2000 | 0.98 | > 200 | 0.563 | 4.75 | – | – |
| SK-LMS-1 (soft tissue, adherent) | 0.665 | 1760 | 0.895 | > 2000 | 0.975 | > 200 | 0.345 | 1.19 | – | – |
| HSC-4 (head and neck, adherent) | 0.558 | 945 | 0.829 | 1850 | 0.962 | > 200 | – | – | 0.781 | 5680 |
| SK-MEL-24 (melanoma, adherent) | 0.939 | > 10000 | 0.977 | > 2000 | 0.968 | > 200 | 0.51 | 3.35 | – | – |
| KYSE-450 (oesophagus, adherent) | 0.753 | 3170 | 0.974 | > 2000 | 0.717 | 49.4 | – | – | 0.983 | > 10000 |
| HT55 (large intestine, adherent) | 0.667 | 1820 | 0.983 | > 2000 | 0.972 | > 200 | 0.975 | > 50 | – | – |
| CL-34 (large intestine, adherent) | 0.776 | 4430 | 0.98 | > 2000 | 0.935 | > 200 | 0.708 | 12.9 | – | – |
| CHSA8926 (chondrosarcoma, adherent) | 0.875 | > 10000 | 0.895 | > 2000 | 0.98 | > 200 | 0.837 | > 50 | – | – |
| CAL-62 (thyroid, adherent) | 0.778 | 3850 | 0.94 | > 2000 | 0.958 | > 200 | 0.211 | 0.468 | – | – |
| DB (B-cell lymphoma, suspension) | 0.457 | 469 | 0.938 | > 2000 | 0.636 | 31.2 | 0.532 | 3.85 | – | – |
| NEC8 (testis, adherent) | 0.404 | 355 | 0.788 | 734 | 0.888 | 166 | 0.706 | 10.7 | – | – |
| Hs746T (stomach, adherent) | 0.758 | 4610 | 0.946 | > 2000 | 0.957 | > 200 | – | – | 0.959 | > 10000 |
| EBC-1 (lung squamous cell carcinoma, adherent) | 0.682 | 2170 | 0.965 | > 2000 | 0.982 | > 200 | 0.356 | 1.18 | – | – |
| NCI-H209 (small cell lung carcinoma, suspension) | 0.448 | 446 | 0.844 | 1580 | 0.764 | 77.4 | 0.26 | 0.608 | – | – |

| Cell Line | AUC (Vorinostat) | IC50 (Vorinostat) [nM] | AUC (Axitinib) | IC50 (Axitinib) [nM] | AUC (Methotrexate) | IC50 (Methotrexate) [nM] | AUC (SN-38) | IC50 (SN-38) [nM] | AUC (Dabrafenib) | IC50 (Dabrafenib) [nM] |
| --- | --- | --- | --- | --- | --- | --- | --- | --- | --- | --- |
| DMS-273 (small cell lung carcinoma, adherent) | 0.715 | 2640 | 0.891 | > 2000 | 0.965 | > 200 | 0.598 | 5.91 | – | – |
| BB65-RCC (kidney, adherent) | 0.75 | 3700 | 0.91 | > 2000 | 0.98 | > 200 | 0.477 | 2.68 | – | – |
| PFSK-1 (medulloblastoma, adherent) | 0.58 | 1050 | 0.874 | > 2000 | 0.893 | > 200 | 0.739 | 15.8 | – | – |
| NB14 (neuroblastoma, adherent) | 0.407 | 354 | 0.736 | 561 | 0.738 | 57 | 0.461 | 2.47 | – | – |
| BB30-HNC (head and neck, adherent) | 0.715 | 2490 | 0.912 | > 2000 | 0.914 | > 200 | 0.511 | 3.34 | – | – |
| OCI-LY7 (B-cell lymphoma, suspension) | 0.441 | 451 | 0.904 | 1310 | 0.993 | > 200 | 0.932 | 40.9 | – | – |
| SK-MES-1 (lung squamous cell carcinoma, adherent) | 0.84 | 7810 | 0.984 | > 2000 | 0.969 | > 200 | 0.694 | 11.6 | – | – |
| NH-12 (neuroblastoma, adherent) | 0.657 | 1810 | 0.869 | > 2000 | 0.95 | > 200 | 0.409 | 1.71 | – | – |
| TOV-21G (ovary, adherent) | 0.593 | 1150 | 0.861 | 1950 | 0.982 | > 200 | 0.574 | 5.08 | – | – |
| GMS-10 (glioma, adherent) | 0.81 | 5220 | 0.973 | > 2000 | 0.988 | > 200 | 0.576 | 5.03 | – | – |
| IPC-298 (melanoma, adherent) | 0.802 | 4820 | 0.986 | > 2000 | 0.976 | > 200 | 0.72 | 13 | – | – |
| D-566MG (glioma, adherent) | 0.564 | 935 | 0.846 | 1420 | 0.984 | > 200 | 0.51 | 3.32 | – | – |
| KYSE-220 (oesophagus, adherent) | 0.818 | 6020 | 0.944 | > 2000 | 0.932 | > 200 | 0.479 | 2.73 | – | – |
| DU-4475 (breast, suspension) | 0.535 | 762 | 0.95 | > 2000 | 0.912 | 195 | 0.708 | 10.6 | – | – |
| MOG-G-UVW (glioma, adherent) | 0.577 | 1010 | 0.896 | > 2000 | 0.973 | > 200 | 0.404 | 1.72 | – | – |
